The record followed here is PubChem BioAssay AID1508642 (National Center for Advancing Translational Sciences (NCATS), 2021).

Screen size: about 43,000 compounds; about 200 (0.47%) were called active. About 12% were inconclusive and are not listed. Calls come from the whole dose curve; as a rule, active = well fitted cell-killing curve with a large enough effect; inconclusive = small, poorly fitted or top-dose-only effect, or effect the other way; inactive = flat fitted curve, though single readings scatter. The list shows a part of the results.
% is set by controls: 0 for no effect and ±100 for the full control effect.

A short description of the experiment: Cell viability qHTS assay in S16 Pmp22-F2sN cells. Note: nearly all actives have a fitted effect of over 65% in size. Conditions: S16 Pmp22-F2sN Schwann cells (luciferase reporters placed in the Pmp22 gene) viability, CellTiter-Glo, 24 h; series mostly up to 57.5 µM; activity change, negative = cytotoxicity: at the top concentration. A digest of the protocol:
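CellTiter-Glo counter-screen, qHTS, 1536-well. Cells: S16(c9) Pmp22-F2sN, 500-1,000/well in DMEM + 10% FBS. Cpd 23 nL pin transfer, 24 h, 37C/5% CO2. Read: luminescence, CCD imager.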
(In general: Quantitative high-throughput screening tests each substance at several concentrations.)
As to `CCOc1ccc(CNC(=O)c2ccc3[nH]c(C)c(C)c3c2)cc1OC`, the “activity change, negative = cytotoxicity” value was inactive: 15.3%. The value for `CCc1ccc(NC(=O)N(Cc2c[nH]c3ccccc23)C2CCCCC2)cc1` was inactive: 26.2%; that for `CCOc1cc(C(=O)Nc2ccc(NC(=O)c3cc4ccccc4o3)c(OC)c2)cc(OCC)c1OCC` was inactive: -6.3%; that for `Cc1ccc2c(c1)c1c(c(=O)n(-c3ccccc3C)c(=O)n1CC(=O)c1ccc(Cl)cc1)n2C` was inactive: -1.72%.

For `COc1ccc(NC(=O)CSC2=Nc3ccccc3N=C(c3ccc(F)cc3)C2)cc1OC`, the “activity change, negative = cytotoxicity” value is inactive: 19%. `CCN(C(=O)CCNC(=O)Cn1cnc2ccccc2c1=O)c1cc(OC)ccc1OC`: the “activity change, negative = cytotoxicity” value was inactive: -1.81%.

Regarding `CN(C)c1cccc(C(=O)Nc2nc3ccc(S(=O)(=O)N4CCCC4)cc3s2)c1`, the “activity change, negative = cytotoxicity” value was inactive: -23.6%.

With `CCSc1ncc(Cl)c(C(=O)Nc2nc3ccc(Cl)cc3s2)n1`, the “activity change, negative = cytotoxicity” value is inactive: -1.27%. For the compound `CN(C)c1ccc(CNC(=O)CN2C(=O)CSc3ccc(S(=O)(=O)N4CCCC4)cc32)cc1`, the “activity change, negative = cytotoxicity” value was inactive: 12.4%. The same measure for `CCC1CN(C(=O)N2CCC(C(=O)NCc3cc(OC)c(OC)c(OC)c3)CC2)c2ccccc2O1` (stereo not given): inactive: -1.33%; for `CN(C)c1ccc(NC(=O)Cn2nnc3sc4c(c3c2=O)CCC(C(C)(C)C)C4)cc1` (stereo not given): inactive: 8.45%; for `COc1ccc(-c2[nH]ncc2C(=O)NCc2cccc(OC)c2)cc1`: inactive: 2.46%. With `CCOc1cccc2cc(-c3cn4c(n3)sc3ccccc34)c(=O)oc12`, the “activity change, negative = cytotoxicity” value was inactive: 0.112%. For the compound `Cc1ccsc1CN(C(=O)COc1ccc(Cl)cc1)C1CCS(=O)(=O)C1` (stereo not given), the “activity change, negative = cytotoxicity” value was inactive: -6.12%.

Consider `CC1CCN(S(=O)(=O)c2ccc3c(ccc(=O)n3CC(=O)NCc3ccccc3Cl)c2)CC1`, for which the “activity change, negative = cytotoxicity” value was inactive: -0.625%. The same measure for `Cc1ccc(CNC(=O)CSc2nnc(C)c3c(C)n(-c4ccccc4)nc23)cc1`: inactive: -1.49%; for `Cc1ccc(-c2nnc(Nc3ccccc3)c3ccccc23)cc1S(=O)(=O)N1CCOCC1`: inactive: 1.4%; for `Cc1ccc(CNC(=O)c2ccc3c(c2)N(Cc2ccccc2Cl)C(=O)CS3)cc1`: inactive: 22.7%. The same measure for `Cc1cccc(N2CCN(C(=O)c3oc(=O)c4ccccc4c3-c3ccccc3)CC2C)c1` (stereo not given): inactive: 13%; for `Cc1cc(OCC(=O)NC(Cc2c[nH]c3ccccc23)C(=O)O)ccc1Cl` (stereo not given): inactive: 17.9%; for `Cc1oc2ncn(C)c(=O)c2c1C(=O)Nc1ccc(F)cc1`: inactive: 14.7%. Regarding `CCOC(=O)c1[nH]c(C)c(CCC(=O)Nc2ccccc2C(=O)OC)c1C`, the “activity change, negative = cytotoxicity” value was inactive: -29.7%. For `CCc1nn(CC(=O)NCCc2ccc(Cl)cc2)c(=O)c2cc3ccccc3n12`, the “activity change, negative = cytotoxicity” value is inactive: 6.51%.

As to `Cc1cc(N2CCN(c3ccc(F)cc3)CC2)n2nc(-c3ccc(Cl)cc3)nc2n1`, the “activity change, negative = cytotoxicity” value was inactive: 1.3%. The value for `COc1cccc(CNC(=O)c2cccc(-n3c(C)nc4cccnc43)c2C)c1` was inactive: -7.13%. The same measure for `Cc1cccc(CSc2nc(=O)c3c(n2C)NC(=O)CC3c2cc(F)cc(F)c2)c1` (stereo not given): inactive: -3.36%; for `CC(C)OCCCNC(=O)c1ccc(Cn2c(=O)c3cccn3c3cccnc32)cc1`: inactive: -3.1%. As to `Cc1ccc(-c2nc(SCC(=O)NCC3CCCO3)c(-c3ccc(C)cc3)[nH]2)cc1` (stereo not given), the “activity change, negative = cytotoxicity” value is inactive: 4.34%.

As to `O=C(Nc1cccc(Cl)c1)c1csnn1`, the “activity change, negative = cytotoxicity” value is inactive: -12.3%. The value for `Cc1nnc(N2CCN(C(=O)Nc3cccc(C(F)(F)F)c3)CC2)c2nn(-c3ccccc3)c(C)c12` was inactive: -19.3%. Turning to `NC(=O)c1cc(S(=O)(=O)NCC2CCC(C(=O)Nc3ccc(Cl)cc3)CC2)cs1` (stereo not given), the “activity change, negative = cytotoxicity” value was inactive: 1.58%.

As to `O=C(Nc1ccc(O)cc1)c1cccc(S(=O)(=O)N2CCOCC2)c1`, the “activity change, negative = cytotoxicity” value is inactive: 25%. For `O=C(CSc1nc2c([nH]c3ccccc32)c(=O)n1-c1ccccc1)N1CCCC1`, the “activity change, negative = cytotoxicity” value was inactive: 13.8%. Turning to `COc1ccc(C)cc1NC(=O)c1ccc2c(Cl)c3c(nc2c1)CCC3`, the “activity change, negative = cytotoxicity” value was inactive: 9.08%.

In the case of `Cn1nc(C(=O)N2CCN(c3ccccc3)CC2)c2c1-c1ccccc1S(=O)(=O)C2`, the “activity change, negative = cytotoxicity” value was inactive: 4.33%. Consider `COc1ccc(S(=O)(=O)c2c(SC)nn(Cc3ccccc3C)c2NC(C)=O)cc1`, for which the “activity change, negative = cytotoxicity” value is inactive: 3.22%. With `COc1cccc(NS(=O)(=O)c2ccc3[nH]cc(C(=O)N(C)C4CCCCC4)c(=O)c3c2)c1`, the “activity change, negative = cytotoxicity” value was inactive: -18.6%. Take `CCCCn1c(=O)c2oc3ccccc3c2n(CC(=O)Nc2cccc(Cl)c2)c1=O`: the “activity change, negative = cytotoxicity” value was inactive: 7.86%. The same measure for `CCCCc1nn2c(=O)cc(COC(=O)c3ccccc3NC(=O)c3ccccc3OC)nc2s1`: inactive: 2.48%; for `CCCC(=O)N1c2nc(C(C)C)nn2C2(CCCCC2)[C@@H]2CCCC[C@@H]21`: inactive: -1.02%; for `Cc1ccc(OCC(=O)Nc2ccc3nn(-c4ccc(Cl)cc4)nc3c2)cc1`: inactive: 8.33%.

`O=c1c2oc3ccccc3c2n(Cc2ccccc2)c(=O)n1Cc1ccc2c(c1)OCO2`: the “activity change, negative = cytotoxicity” value is inactive: 1.02%. The same measure for `CCOC(=O)c1cccc(Nc2ccc3cc(S(=O)(=O)N4CCCCC4)ccc3n2)c1`: inactive: -19.8%; for `COc1cc(C2CC(=O)Nc3c2c(=O)[nH]c2ncnn32)ccc1O` (stereo not given): inactive: -1.45%.

For the compound `CCOC(=O)C1CCCN(C(=O)c2ccc3c(c2)N(Cc2ccccc2)C(=O)c2ccccc2S3=O)C1` (stereo not given), the “activity change, negative = cytotoxicity” value is inactive: -1.22%. The value for `Cc1ccc(C)c(NC(=O)Cn2c(=O)n(CCC(=O)NCc3ccc4c(c3)OCO4)c(=O)c3ccccc32)c1` was inactive: 26.2%.

Regarding `CCCN1CCCc2cc(CN(CCCN3CCOCC3)C(=O)Nc3ccc(CC)cc3)ccc21`, the “activity change, negative = cytotoxicity” value was inactive: 19.5%. As to `COc1ccc(CN2C(=O)C(NC(=O)c3ccccc3C)(C(F)(F)F)N=C2c2ccccc2)cc1` (stereo not given), the “activity change, negative = cytotoxicity” value was inactive: -0.422%.

For `Cc1nn(CC(=O)NCc2ccc(OC(C)C)cc2)c(=O)c2c(C)n(-c3ccc(Cl)cc3)nc12`, the “activity change, negative = cytotoxicity” value was inactive: -12.9%. For `CCc1ccccc1NC(=O)Cn1nnc(C(=O)Nc2ccc(C)c(F)c2)c1N`, the “activity change, negative = cytotoxicity” value was inactive: -1.39%.

`Cc1ccc2oc(-c3ccc(Cl)c(NC(=O)c4ccc(-c5ccccc5[N+](=O)[O-])o4)c3)nc2c1`: the “activity change, negative = cytotoxicity” value is inactive: -3.26%. The same measure for `COc1ccc2c(c1)-c1nc(NC(=O)c3ccc(Cl)cc3)sc1CC2`: inactive: 7.31%; for `COc1ccc(CNc2ncnc3c2nnn3C)cc1`: inactive: -21.4%. Turning to `COc1ccccc1CCNc1ncnc2c1nnn2C`, the “activity change, negative = cytotoxicity” value is inactive: -11.6%. The same measure for `CCCCCOc1ccc(C2c3c(oc4ccccc4c3=O)C(=O)N2c2nc(C)c(C)s2)cc1OCC` (stereo not given): inactive: -3.27%; for `Cc1cccc(-n2c3nc(=O)n(C)c(=O)c-3cc3c(Cl)cccc32)c1C`: inactive: 1.17%; for `CC(C)CCNC(=O)CSCc1cnn(-c2ccccc2)c1-n1cccc1`: inactive: 3%. The value for `CCc1nc(SCC(=O)Nc2ccc(NC(C)=O)cc2)n[nH]1` was inactive: -3.89%; that for `Cc1ccc(-n2c(=O)c3ccc(C(=O)NCc4ccco4)cc3n(Cc3cccc(Cl)c3)c2=O)cc1` was inactive: -7.69%. In the case of `CC(C)c1cnc2c(c1SCc1cccc(C(F)(F)F)c1)c(=O)n(C)c(=O)n2C`, the “activity change, negative = cytotoxicity” value is inactive: 1.2%.
